Screen size: about 310,000 compounds; about 2,200 (0.71%) showed an effect of 50% or more. Effects have a minus sign here. The list shows a part of the results.
What follows are compounds tested against human ether-à-go-go-related gene (hERG) potassium channel (human, UniProt Q12809) (assay: primary screen, population patch clamp on CHO cells stably expressing hERG).
Chain of human ether-à-go-go-related gene (hERG) potassium channel (Q12809 whole entry, looked up): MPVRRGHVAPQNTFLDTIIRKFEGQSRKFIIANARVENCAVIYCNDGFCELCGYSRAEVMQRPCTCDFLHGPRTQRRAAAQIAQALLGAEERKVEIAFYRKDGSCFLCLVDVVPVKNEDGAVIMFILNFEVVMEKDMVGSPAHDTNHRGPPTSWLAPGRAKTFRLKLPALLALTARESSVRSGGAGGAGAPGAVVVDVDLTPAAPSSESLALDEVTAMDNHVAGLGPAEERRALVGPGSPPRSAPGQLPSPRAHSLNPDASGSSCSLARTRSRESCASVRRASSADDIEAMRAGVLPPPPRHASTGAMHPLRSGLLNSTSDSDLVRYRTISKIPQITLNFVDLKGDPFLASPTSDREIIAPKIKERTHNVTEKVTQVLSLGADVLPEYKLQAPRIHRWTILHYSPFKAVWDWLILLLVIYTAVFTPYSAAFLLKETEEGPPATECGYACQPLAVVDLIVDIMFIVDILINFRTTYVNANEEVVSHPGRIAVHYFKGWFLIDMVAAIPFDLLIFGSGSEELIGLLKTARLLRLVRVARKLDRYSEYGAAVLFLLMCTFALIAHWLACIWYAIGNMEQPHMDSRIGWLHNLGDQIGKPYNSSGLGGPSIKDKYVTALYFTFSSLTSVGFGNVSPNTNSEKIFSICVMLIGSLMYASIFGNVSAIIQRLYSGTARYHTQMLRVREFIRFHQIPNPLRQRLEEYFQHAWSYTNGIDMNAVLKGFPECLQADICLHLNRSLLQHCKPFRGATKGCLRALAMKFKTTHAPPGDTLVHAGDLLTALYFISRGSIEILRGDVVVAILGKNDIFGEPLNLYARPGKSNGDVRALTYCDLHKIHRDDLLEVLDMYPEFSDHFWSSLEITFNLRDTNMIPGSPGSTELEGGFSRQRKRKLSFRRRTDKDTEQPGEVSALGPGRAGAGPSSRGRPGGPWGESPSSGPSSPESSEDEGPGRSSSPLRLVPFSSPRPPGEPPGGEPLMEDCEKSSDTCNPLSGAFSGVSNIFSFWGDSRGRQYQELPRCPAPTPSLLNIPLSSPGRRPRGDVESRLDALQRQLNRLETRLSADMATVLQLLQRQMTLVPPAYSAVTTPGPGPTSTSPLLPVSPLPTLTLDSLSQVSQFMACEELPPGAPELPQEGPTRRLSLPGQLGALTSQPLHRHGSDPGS

Compound | hERG current change (%, negative = inhibition) at 1uM [%]
Nc1nc2c(c3c1c(=O)oc1ccccc13)CCCCC2 | 13.3
COc1cc2c(cc1OC)CN(C(=O)/C=C/c1cc(OC)c(OC)c(OC)c1)CC2 | 2.96
Cn1c(CO)cnc1SCc1ccc([N+](=O)[O-])cc1 | -0.423
COc1ccc(OCC(=O)N2N=C(C)CC2(O)C(F)(F)F)cc1 (stereo not drawn) | 9.14
CCCCn1nc2cc(C(=O)NCCCCc3ccccc3)ccc2c1OCC | 5.8
COc1ccccc1-c1noc(CCCC(=O)Nc2ccc(C(N)=O)cc2)n1 | 15
Clc1ccccc1-c1nnc(-c2cccs2)o1 | 7.21
COc1ccc(C(=O)Nc2nnc(S(=O)(=O)N(C)Cc3ccccc3)s2)cc1 | 8.03
Cl.O=C(CC(Nc1ccccc1)c1ccc(F)cc1)c1ccccc1 (stereo not drawn) | 12.2
CC(C)OCCCn1c(SCC(=O)N2CCc3ccccc32)nc2ccccc2c1=O | 11.1
CC(C)c1ccc(S(=O)(=O)N2CCN(C(=O)c3ccco3)CC2)cc1 | 0.807
Cc1ccccc1NC(=O)Cn1cnc2c(oc3nc4c(cc32)COC(C)(C)C4)c1=O | 7.11
CCC(C)(C)NC(=O)C(c1ccc(OC)cc1)N(C(=O)CCC(=O)Nc1cc(C)on1)c1ccc(OC)cc1OC (stereo not drawn) | 3.69
Cc1cc(Br)ccc1NC(=O)CN1C(=S)NC(C)(C)CC1C (stereo not drawn) | 11
Cl.N=C1C(c2nc(-c3ccc(Cl)cc3)cs2)=C(O)CN1CCCN1CCOCC1 | -12.3
CCCCN(C(=O)/C=C/c1ccc(OC)cc1)C1CCS(=O)(=O)C1 (stereo not drawn) | -7.27
CCCNC(=O)N1CCC(C(=O)c2cccc(F)c2)CC1 | -5.73
CNC(=O)C12N=CNN=C1N(C)C(=O)N2C (stereo not drawn) | 8.87
COc1cc(C(=O)NC23CC4CC(CC(C4)C2)C3)cc(OC)c1OC | 12.1
Cc1ccccc1-n1nc2c(c1NC(=O)CCCl)CSC2 | 13.3
CC(=O)N1CCOc2ccc(S(=O)(=O)N(C)c3ccc(C)cc3)cc21 | 12.4
CC1CCN(C(=O)CSc2nnc(Cc3cccn3C)n2CCc2ccccc2)CC1 | 3.61
O=C(Nc1ccc2nc3n(c(=O)c2c1)CCCC3)c1ccccc1F | -3.6

Compound | hERG current change (%, negative = inhibition) at 1uM [%]
Cc1ccc(NC(=O)CN2C(=O)S/C(=C\c3cccn3-c3cccc(C(=O)O)c3)C2=O)c(C)c1 | 13.6
Nc1nc(SCc2ccc3c(c2)OCO3)n[nH]1 | 9.27
Fc1ccc(-c2nc3ccncc3[nH]2)cc1 | 13.1
O=C(COc1cccnc1[N+](=O)[O-])NCCc1ccc(Cl)cc1Cl | -1.88
O=C(Nc1cccc(S(=O)(=O)N2CCCCC2)c1)c1ccc2c(=O)n3c(nc2c1)CCCCC3 | -7.43
COc1ccc(NC(=S)NCCNC(C)=O)cc1 | 12.4
CCOC(=O)CSCc1csc(CC(=O)Nc2ccccc2C)n1 | 16.9
O=C(O)C1Cc2[nH]cnc2C(c2ccc(F)cc2)N1 (stereo not drawn) | 11.3
CC(C)Cc1ccc(CN2CCC(n3nccc3NC(=O)C3CCCC3)CC2)cc1 | -16.9
CCCCn1c(N)c(N(CC(C)C)C(=O)CC2CCCCC2)c(=O)[nH]c1=O | 3.59
FC(F)Oc1ccc(NC(=S)NCc2nc3ccccc3[nH]2)cc1 | -46.4
Fc1ccc(Oc2nnnn2-c2ccccc2)cc1 | 23.2
CN1CC2([N+](=O)[O-])CC=C(OCCO)C([N+](=O)[O-])(C1)C2 (stereo not drawn) | 13.3
CN(C)CCCNC(=O)C1CCNCC1 | 13.9
Cc1nnc(SCc2ccccc2)n(N)c1=O | 3.36
O=C(COC(=O)c1ccccc1)Nc1cccc(S(=O)(=O)N2CCOCC2)c1 | 2.97
Cc1ccc(N2C(=O)NC(=O)/C(=C\c3cccn3C(C)(C)C)C2=O)cc1 | 17.8
Cc1cccc(N(CC(=O)NCCSCc2ccccc2)S(C)(=O)=O)c1 | 16.4
Cc1occc1C(=O)N/N=C/c1ccc2c(c1)OCO2 | 11
Cc1ccccc1C(=O)NNC(=S)NC(=O)c1ccc(Cl)cc1Cl | 11
COC(=O)c1sccc1N/C=C(\C#N)S(=O)(=O)C(C)(C)C | 19.6
CSc1ccccc1NC(=O)CN(C)C(=O)Cn1c(=O)oc2ccccc21 | 13.8
CN(C(=O)COC(=O)c1ccc(=O)n(Cc2ccccc2)n1)C1CCCCC1 | 10.8

Compound | hERG current change (%, negative = inhibition) at 1uM [%]
COc1ccc(-c2c(C(F)(F)F)nn(C)c2NC(=O)CSCC(=O)O)cc1 | 13.4
COc1cc(-c2nc(-c3ccc(NC(=O)c4ccc(Br)o4)cc3)no2)cc(OC)c1OC | 7.49
COc1ccc(C(CC(=O)c2ccccc2)CC(=O)c2ccccc2)cc1OC | -10
C=CCc1ccccc1OCC(O)CN1CCN(c2ccccc2OC)CC1.Cl (stereo not drawn) | -52.3
Cc1cc(N2CCN(C)CC2)nc2ccc(NC(=S)NCc3cccs3)cc12 | -10
O=C(c1ccc(Cl)c([N+](=O)[O-])c1)N1CCN(c2ccccc2)CC1 | 5.06
Cc1cc(C)c2nc(N(CCN(C)C)C(=O)c3ccc4ccccc4c3)sc2c1.Cl | 13.5
COc1ccc(C)cc1NC(=O)NNC(=O)c1ccoc1C | 11.1
COCCn1nnnc1C(c1cccs1)N1CCN2CCCC2C1.Cl (stereo not drawn) | 13.8
Cc1ccc(C)c(N(C)C(=O)c2ccc3c(=O)n4c(nc3c2)CCCCC4)c1 | 13.9
Cc1sc2ccccc2[n+]1CCC(C)S(=O)(=O)[O-] (stereo not drawn) | -8.74
COC(=O)c1cccc([N+](=O)[O-])c1CS(=O)(=O)c1ccc(C)cc1 | 15.1
CCc1cc(-c2n[nH]c(=S)n2CC(C)C)cs1 | 1.14
COc1ccc(NS(=O)(=O)c2ccc(N3CCCCC3)c(N)c2)cc1 | 2.68
CSc1nc(C)cc(OCC(=O)N2CCOCC2)n1 | 8.96
Cc1ccc(C(=O)O)cc1N=Cc1cc(Br)cc(Br)c1O | 25.9
Cc1nc(CSc2ccccc2)cc(=O)[nH]1 | 5.77
COc1cc(NC(=O)CN2C(=O)COc3ccc(S(=O)(=O)N4CCCC4)cc32)cc(OC)c1 | 3.87
COc1ccc(OC)c(C(c2nnnn2CC2CCCO2)N2CCN(C)CC2)c1.Cl (stereo not drawn) | 12.3
CS(=O)(=O)NN1C(=O)c2ccccc2NC1c1ccccc1F (stereo not drawn) | 10.8
CCc1ccccc1NC(=O)CSc1nnc(Cn2nnc3ccccc32)n1C | 10.5
CCCNC(=O)c1ccccc1SCc1c(C)noc1C | 17.6
c1ccc(-c2cccc(-c3ccccc3)n2)cc1 | 8.47

Compound | hERG current change (%, negative = inhibition) at 1uM [%]
O=C(CN(c1ccc(F)cc1)S(=O)(=O)c1ccccc1)Nc1ccccc1C(=O)O | 7.73
CCOC(=O)c1c(NC(=O)C(C)OC(=O)c2ccc(NC(=O)CC#N)cc2)sc2c1CCCC2 (stereo not drawn) | 16.1
COC(=O)c1cccc(-n2nnnc2SCC(=O)Nc2nc3c(s2)CCCC3)c1 | 13.4
CCOc1ccc(CN2CCNC(=O)C2CC(=O)O)cc1 (stereo not drawn) | 8.45
C=CCN(CC=C)CC(O)CN(c1cc([N+](=O)[O-])ccc1OC)S(=O)(=O)c1ccccc1 (stereo not drawn) | 8.5
CCN(N=Nc1nonc1OC)c1nonc1OC | 12.1
COc1ccc(N2Cc3ccccc3C2=NC(=O)c2cncc(Br)c2)cc1 | 18.1
O=C(CSc1ccc2ccccc2n1)c1ccccc1 | 15.7
CCc1ccc(NC(=O)C2CCCN(S(=O)(=O)c3ccc4c(c3)CC(C)N4C(C)=O)C2)cc1 (stereo not drawn) | 2.67
O=C(c1ccco1)N1CCN(C(=S)Nc2ccc(F)c(Cl)c2)CC1 | 8.33
COC(=O)N/N=C/c1ccc([N+](=O)[O-])s1 | 19.7
CC(=O)N(c1ccccc1)C1SC(=O)N(c2ccccc2)C1=O (stereo not drawn) | 10.1
Cc1cc(C)c2cc(CN(CCO)Cc3nnnn3Cc3ccccc3)c(=O)[nH]c2c1 | 0.542
S=c1[nH]c(-c2ccccc2)cn1/N=C/c1ccc(Br)cc1 | 9.71
O=C(/C=C/c1ccc([N+](=O)[O-])o1)NNC(=O)c1ccc(F)cc1 | 10.8
CCOC(=O)C1CCN(c2c(NCc3ccc(C(=O)NC4CCCC4)cc3)c(=O)c2=O)CC1 | -7.92
Cc1ccc2c(Cl)c(C(=O)N/N=C/c3cccn3C)sc2c1 | 10.6
O=C(O)CN(C1CCCCC1)S(=O)(=O)c1ccc(F)cc1 | 12.7
O=C(c1cccc(OC2CCN(C3CCCC3)CC2)c1)N1CCCCCCC1 | -11.5
C[C@]12CCC3C(CC[C@H]4CC(O)CC[C@]34C)C1CC/C2=N/NC(=O)c1ccncc1 (stereo partly drawn) | 11.9
COC(=O)c1ccc(C)c(NC(=O)C2CC(=O)N(C3CCCC(C)C3C)C2)c1 (stereo not drawn) | 10.9
